# Experimental data: paper PMC5892938
# The other results are listed elsewhere or left out. At the low end of the ranking, values are background and their order means little.
# Molecular target: GST-SBP-SLBP (stem-loop binding protein) (UniProt Q14493)
# Test: targeted RNA Bind-n-Seq;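 also: DESeq read counts versus GST-SBP nonspecific binding control pulldown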
# Conditions: RBNS binding buffer: 25 mM Tris pH 7.5, 150 mM KCl, 3 mM MgCl2, 0.1% Tween, 0.5 mg/mL BSA, 1 mM DTT; 27 nM protein, 750 pM RNA pool; temperature not stated; high values mean tight binding
row,Sequence,binding signal (log2 fold change)
1,GGUCACGUCUCAAUCAACUCUAACGAGGGGGGGAAAACCCCUUUGCCCUCACUUUCAACAGCUCGCAGUCAAG,-0.0105
2,GGUCACGUCUCAAUCAACUCAUAAGAGGGGGGGAAAACCCCUUUGCCCUCCAAAUCAACAGCUCGCAGUCAAG,-0.0149
3,GGUCACGUCUCAAUCAACUCUUCGUCCAGGGAAAGCCCUGGCUAUUUCAACAGCUCGCAGUCAAG,-0.0464
4,GGUCACGUCUCAAUCAACUCAAUCUCAGGAGUUUACUCCUGCAUUCUCAACAGCUCGCAGUCAAG,0.2
5,GGUCACGUCUCAAUCAACUCAUCUCCAGGAGUUUCCUCCUGUUAAUUCAACAGCUCGCAGUCAAG,0.0425
6,GGUCACGUCUCAAUCAACUCAUCCCCAGGAGUUUACUCCUGUAUUCUCAACAGCUCGCAGUCAAG,-0.00768
7,GGUCACGUCUCAAUCAACUCAAUAGAGGGGGGGAAAACCCCUUUACCCUCAACUUCAACAGCUCGCAGUCAAG,-0.15
8,GGUCACGUCUCAAUCAACUCUAUCUCAGGAGUUUACUCCUGUAUUUUCAACAGCUCGCAGUCAAG,0.102
9,GGUCACGUCUCAAUCAACUCUUUUCCCAGGGAAAACCCUGGCAAUGUCAACAGCUCGCAGUCAAG,-0.112
10,GGUCACGUCUCAAUCAACUCUACUCCCAGGGAAACCCCUGGUUUAUUCAACAGCUCGCAGUCAAG,-0.277
11,GGUCACGUCUCAAUCAACUCUAAAGAGGGGGGGAAAACCCCUUUACCCUCAUCGUCAACAGCUCGCAGUCAAG,0.0826
12,GGUCACGUCUCAAUCAACUCAAUCUCCAGGGAAACCCCUGGCUUUUUCAACAGCUCGCAGUCAAG,0.107
13,GGUCACGUCUCAAUCAACUCUUUCUCCAGGGAAAACCCUGGUAUAUUCAACAGCUCGCAGUCAAG,-0.0236
14,GGUCACGUCUCAAUCAACUCUUUCUCAGGAGUUUCCUCCUGCUUUUUCAACAGCUCGCAGUCAAG,0.0194
15,GGUCACGUCUCAAUCAACUCAUUUUCCAGGGAAACCCCUGGCGUAUUCAACAGCUCGCAGUCAAG,-0.0822
16,GGUCACGUCUCAAUCAACUCUAUCUCCAGGGAAAGCCCUGGCAAUGUCAACAGCUCGCAGUCAAG,-0.0105
17,GGUCACGUCUCAAUCAACUCUACUUCAGGAGUUUACUCCUGCAUUUUCAACAGCUCGCAGUCAAG,-0.0382
18,GGUCACGUCUCAAUCAACUCUACUUCCAGGGAAACCCCUGGUAAUUUCAACAGCUCGCAGUCAAG,0.157
19,GGUCACGUCUCAAUCAACUCUUUUUCCAGGGAAAGCCCUGGUUAUGUCAACAGCUCGCAGUCAAG,0.238
20,GGUCACGUCUCAAUCAACUCUUUCUCCAGGGAAAACCCUGGUAUACUCAACAGCUCGCAGUCAAG,0.0398
21,GGUCACGUCUCAAUCAACUCAUAAGAGGGGGGGAAAACCCCUUUGCCCUCAACCUCAACAGCUCGCAGUCAAG,-0.32
22,GGUCACGUCUCAAUCAACUCAUCCCCCAGGGAAAUCCCUGGCUUACUCAACAGCUCGCAGUCAAG,0.468
23,GGUCACGUCUCAAUCAACUCUUCUCCCAGGGAAACCCCUGGUUAACUCAACAGCUCGCAGUCAAG,0.0809
24,GGUCACGUCUCAAUCAACUCUUCUUCCAGGGAAACCCCUGGCAAUGUCAACAGCUCGCAGUCAAG,-0.25
25,GGUCACGUCUCAAUCAACUCAUCUCCCAGGGAAAACCCUGGCAAAUUCAACAGCUCGCAGUCAAG,-0.0157

row,Sequence,binding signal (log2 fold change)
1,GGUCACGUCUCAAUCAACUCAAUCGAGGGGGGGAAAACCCCUUUGCCCUCACUAUCAACAGCUCGCAGUCAAG,0.0533
2,GGUCACGUCUCAAUCAACUCAUCCGAGGGGGGGAAAACCCCUUUACCCUCAAUAUCAACAGCUCGCAGUCAAG,-0.338
3,GGUCACGUCUCAAUCAACUCAUUUUCAGGAGUUUUCUCCUGCAAACUCAACAGCUCGCAGUCAAG,-0.0487
4,GGUCACGUCUCAAUCAACUCCCAAGAGGGGGGGAAAACCCCUUUACCCUCGUUUUCAACAGCUCGCAGUCAAG,-0.00957
5,GGUCACGUCUCAAUCAACUCAUCGCCCAGGGAAAGCCCUGGUUAUCUCAACAGCUCGCAGUCAAG,-0.0203
6,GGUCACGUCUCAAUCAACUCUACUCCAGGAGUUUCCUCCUGCUUUUUCAACAGCUCGCAGUCAAG,-0.182
7,GGUCACGUCUCAAUCAACUCAUCAGAGGGGGGGAAAACCCCUUUACCCUCAAAAUCAACAGCUCGCAGUCAAG,-0.349
8,GGUCACGUCUCAAUCAACUCUUUAGAGGGGGGGAAAACCCCUUUACCCUCAAUUUCAACAGCUCGCAGUCAAG,-0.226
9,GGUCACGUCUCAAUCAACUCAGUCUCCAGGGAAAACCCUGGCUUUUUCAACAGCUCGCAGUCAAG,-0.00561
10,GGUCACGUCUCAAUCAACUCAUCUUCCAGGGAAAGCCCUGGCGUAUUCAACAGCUCGCAGUCAAG,-0.0103
11,GGUCACGUCUCAAUCAACUCUACGCCAGGAGUUUACUCCUGUAAUUUCAACAGCUCGCAGUCAAG,0.0688
12,GGUCACGUCUCAAUCAACUCAGUCUCCAGGGAAACCCCUGGUAUUUUCAACAGCUCGCAGUCAAG,-0.104
13,GGUCACGUCUCAAUCAACUCACUAGAGGGGGGGAAAACCCCUUUACCCUCAAACUCAACAGCUCGCAGUCAAG,-0.0184
14,GGUCACGUCUCAAUCAACUCUUCAGAGGGGGGGAAAACCCCUUUGCCCUCCACAUCAACAGCUCGCAGUCAAG,0.0713
15,GGUCACGUCUCAAUCAACUCUACUUCAGGAGUUUCCUCCUGUUUUCUCAACAGCUCGCAGUCAAG,-0.16
16,GGUCACGUCUCAAUCAACUCCCAAGAGGGGGGGAAAACCCCUUUGCCCUCACACUCAACAGCUCGCAGUCAAG,-0.329
17,GGUCACGUCUCAAUCAACUCCCAAGAGGGGGGGAAAACCCCUUUGCCCUCAAUAUCAACAGCUCGCAGUCAAG,-0.357
18,GGUCACGUCUCAAUCAACUCAAUUUCCAGGGAAAACCCUGGCAUUCUCAACAGCUCGCAGUCAAG,-0.0923
19,GGUCACGUCUCAAUCAACUCUUCUCCCAGGGAAAGCCCUGGCAAUCUCAACAGCUCGCAGUCAAG,0.126
20,GGUCACGUCUCAAUCAACUCAAUCUCCAGGGAAAGCCCUGGUAAACUCAACAGCUCGCAGUCAAG,-0.143
21,GGUCACGUCUCAAUCAACUCCUUAGAGGGGGGGAAAACCCCUUUGCCCUCAACAUCAACAGCUCGCAGUCAAG,0.411
22,GGUCACGUCUCAAUCAACUCUACGGAGGGGGGGAAAACCCCUUUACCCUCACUAUCAACAGCUCGCAGUCAAG,-0.165
23,GGUCACGUCUCAAUCAACUCUAGUCCCAGGGAAAACCCUGGCAUAUUCAACAGCUCGCAGUCAAG,0.133
24,GGUCACGUCUCAAUCAACUCAACAGAGGGGGGGAAAACCCCUUUACCCUCACCUUCAACAGCUCGCAGUCAAG,0.0589
25,GGUCACGUCUCAAUCAACUCAAUUCCCAGGGAAAACCCUGGCUUUUUCAACAGCUCGCAGUCAAG,0.00495

row,Sequence,binding signal (log2 fold change)
1,GGUCACGUCUCAAUCAACUCAUUUUCAGGAGUUUCCUCCUGUUUUUUCAACAGCUCGCAGUCAAG,-0.116
2,GGUCACGUCUCAAUCAACUCAGUCUCAGGAGUUUACUCCUGCAAUUUCAACAGCUCGCAGUCAAG,-0.0631
3,GGUCACGUCUCAAUCAACUCUCUAGAGGGGGGGAAAACCCCUUUACCCUCGUCCUCAACAGCUCGCAGUCAAG,0.0577
4,GGUCACGUCUCAAUCAACUCAUACGAGGGGGGGAAAACCCCUUUACCCUCAAUAUCAACAGCUCGCAGUCAAG,0.313
5,GGUCACGUCUCAAUCAACUCAUCGCCCAGGGAAAACCCUGGUUAUCUCAACAGCUCGCAGUCAAG,-0.0479
6,GGUCACGUCUCAAUCAACUCAAUCUCAGGAGUUUACUCCUGCAUACUCAACAGCUCGCAGUCAAG,-0.0996
7,GGUCACGUCUCAAUCAACUCUCACGAGGGGGGGAAAACCCCUUUACCCUCAUAUUCAACAGCUCGCAGUCAAG,-0.504
8,GGUCACGUCUCAAUCAACUCAUCCUCCAGGGAAAGCCCUGGUUAACUCAACAGCUCGCAGUCAAG,-0.0746
9,GGUCACGUCUCAAUCAACUCAACGGAGGGGGGGAAAACCCCUUUACCCUCAUUAUCAACAGCUCGCAGUCAAG,-0.223
10,GGUCACGUCUCAAUCAACUCUAUCCCAGGAGUUUACUCCUGCUAAUUCAACAGCUCGCAGUCAAG,-0.0151
11,GGUCACGUCUCAAUCAACUCAUCUCCAGGAGUUUCCUCCUGUUAUUUCAACAGCUCGCAGUCAAG,-0.0525
12,GGUCACGUCUCAAUCAACUCUCCAGAGGGGGGGAAAACCCCUUUACCCUCAAUAUCAACAGCUCGCAGUCAAG,-0.453
13,GGUCACGUCUCAAUCAACUCUUUUCCCAGGGAAAUCCCUGGUAUUCUCAACAGCUCGCAGUCAAG,0.21
14,GGUCACGUCUCAAUCAACUCUAUUCCAGGAGUUUCCUCCUGCAUUUUCAACAGCUCGCAGUCAAG,-0.0764
15,GGUCACGUCUCAAUCAACUCUAUGUCAGGAGUUUUCUCCUGCUUUCUCAACAGCUCGCAGUCAAG,0.0093
16,GGUCACGUCUCAAUCAACUCCAUCGAGGGGGGGAAAACCCCUUUACCCUCCACAUCAACAGCUCGCAGUCAAG,0.133
17,GGUCACGUCUCAAUCAACUCAUCCUCCAGGGAAAACCCUGGCUAUCUCAACAGCUCGCAGUCAAG,-0.0404
18,GGUCACGUCUCAAUCAACUCAUUUUCAGGAGUUUUCUCCUGCUUAUUCAACAGCUCGCAGUCAAG,0.0365
19,GGUCACGUCUCAAUCAACUCUUCUCCCAGGGAAAUCCCUGGUAAUGUCAACAGCUCGCAGUCAAG,-0.194
20,GGUCACGUCUCAAUCAACUCAAUUUCAGGAGUUUCCUCCUGCAAUCUCAACAGCUCGCAGUCAAG,0.0787
21,GGUCACGUCUCAAUCAACUCAUUCGAGGGGGGGAAAACCCCUUUACCCUCAAUUUCAACAGCUCGCAGUCAAG,-0.107
22,GGUCACGUCUCAAUCAACUCUUUUUCCAGGGAAAACCCUGGCUUUUUCAACAGCUCGCAGUCAAG,-0.0664
23,GGUCACGUCUCAAUCAACUCAAUUCCAGGAGUUUGCUCCUGCAUUUUCAACAGCUCGCAGUCAAG,0.0103
